# Legend:
# [1] = tested on: neuroblastoma cells and breast cancer cells; settings: high doses, in culture and in mice with transplanted breast cancer; cited from earlier work
# [2] = tested on: patients with head and neck cancer; settings: without interfering with efficacy of radiation therapy; cited from earlier work
# [3] = tested on: murine NB cells; settings: high doses, in culture; cited from earlier work
# [4] = tested on: estrogen receptor (ER)-positive (MCF7) and ER-negative MDA-MB-231 breast cancer cells; settings: in culture; cited from earlier work
# [5] = tested on: murine neuroblastoma (NB) cells; assay: Killing of murine neuroblastoma cells in culture; type: cell-based
# [6] = tested on: human colon cancer cells over-expressing Cox-2 enzyme (HT29 cells); settings: cited from earlier work
# [7] = tested on: breast cancer cells; settings: in culture; cited from earlier work
# [8] = tested on: tumor growth and metastasis; settings: in vivo; cited from earlier work
# [9] = tested on: normal epithelial cell line (IEC-6); settings: cited from earlier work
# [10] = tested on: HCT 15 cell line; settings: cell line expressing reduced level of COX-2; cited from earlier work
# [11] = tested on: NK/T cell lymphoma (NKTCL); settings: cited from earlier work
# [12] = tested on: androgen-sensitive (22RV1) and androgen insensitive prostate cancer cells; settings: cited from earlier work
# [13] = tested on: hepatoma cells; settings: cited from earlier work; for levels of phosphorylated H2AX (yH2AX): individual treatment, in culture
# [14] = tested on: breast cancer cells in culture (MCF-7); settings: 10 μM before irradiation, cited from earlier work
# [15] = tested on: normal prostate epithelial cells; settings: 2.5-10 μM; cited from earlier work
# [16] = tested on: human leiomyoma cells; settings: in culture; cited from earlier work
# [17] = tested on: ovarian cancer cells; settings: in culture; cited from earlier work
# [18] = tested on: cancer cells; settings: high doses; cited from earlier work
# [19] = tested on: locally advanced, borderline resectable pancreatic cancer; settings: intravenous high doses as ascorbic acid, with gemcitabine and radiation therapy; cited from earlier work
# [20] = tested on: pancreatic cancer cells; settings: high doses of ascorbate; cited from earlier work
# [21] = tested on: patients with differentiated thyroid cancer; settings: daily dose of 1500 mg, radioiodine therapy; cited from earlier work
# [22] = tested on: normal cells; settings: high doses of ascorbate; cited from earlier work
# [23] = tested on: murine normal fibroblast; assay: Growth of murine normal fibroblast; type: cell-based; settings: high doses
# [24] = tested on: tumorigenic parotid acinar cells (2HP1G); assay: Growth of tumorigenic parotid acinar cells in culture; type: cell-based
# [25] = tested on: human colorectal cancer (CRC cell line) carrying Kras mutation or Braf mutation; settings: cited from earlier work
# [26] = tested on: H-ras transformed human breast epithelial cells; settings: cited from earlier work
# [27] = tested on: human breast cancer cells; settings: 0.9 μM to 9.0 μM, in culture; cited from earlier work
# [28] = tested on: breast cancer patients; settings: cited from earlier work
# [29] = tested on: non-transformed astrocytes; settings: cited from earlier work
# [30] = tested on: human glioma cells; settings: in culture; cited from earlier work
# [31] = tested on: various cancer cells; settings: in culture; cited from earlier work
# [32] = tested on: gastric carcinoma; settings: cell culture and xenograft models; cited from earlier work
# [33] = tested on: human colon cancer cells; settings: in culture; cited from earlier work
# [34] = tested on: chronic myelogenous leukemia cells; settings: co-treatment, in culture; cited from earlier work
# [35] = tested on: radioresistant cervical cancer cells; settings: pre-treatment; cited from earlier work
# [36] = tested on: B-16 murine melanoma cells; settings: high doses, in culture; cited from earlier work
# [37] = tested on: human cervical cancer cells (HeLa cells); assay: Adriamycin toxicity on HeLa cells; type: cell-based; settings: Table 5 in FIG. 5
# [38] = tested on: neuroblastoma cells; assay: Apoptosis and hyperthermia in neuroblastoma cells; type: cell-based; settings: 40° C., 41° C., and 43° C., in culture (Table 6 in FIG. 6)
# Method: Hyperthermia at 40° 43° C. alone or in combination with radiation therapy is primarily used in the management of local tumor control after all standard therapeutic modalities have failed. Variable improvements in transient local tumor control have been observed.
# [39] = tested on: human normal fibroblasts; assay: Chromosomal damage in human normal fibroblasts; type: cell-based
# [40] = tested on: human cervical cancer cells and ovarian cancer cells; assay: Chromosomal damage in human cancer cells; type: cell-based
# [41] = tested on: murine melanoma cells; assay: Differentiation and growth of murine melanoma cells in culture; type: cell-based
# Text: Several studies using other cancer cell lines in culture and in animal models confirmed this observation.
# [42] = tested on: human normal fibroblasts; assay: Adriamycin toxicity on human normal fibroblasts; type: cell-based; settings: Table 5 in FIG. 5
# [43] = tested on: breast cancer cells in culture or mice carrying breast cancer cells; settings: cited from earlier work
compound,measurement,setting,value
O=C(O)CCCCC1CCSS1 (stereo not drawn) [Alpha-lipoic acid],glucose uptake and growth,[1],reduced glucose uptake and reduced the growth
CC1=C(/C=C/C(C)=C/C=C/C(C)=C/C=C/C=C(C)/C=C/C=C(C)/C=C/C2=C(C)CCCC2(C)C)C(C)(C)CCC1 [Beta-carotene],radiation-induced oral mucositis,[2],reduced radiation-induced oral mucositis
same,differentiation,[3],induced differentiation
"O=C(O[C@@H]1Cc2c(O)cc(O)cc2O[C@@H]1c1cc(O)c(O)c(O)c1)c1cc(O)c(O)c(O)c1 [EGCG, epigallocatechin gallate]",uptake of glucose and growth,[4],inhibited the uptake of glucose and reduced the growth
N[C@@H](CCC(=O)N[C@@H](CS)C(=O)NCC(=O)O)C(=O)O [Glutathione],killing of NB cells compared with vitamin C,[5],more effective than vitamin C in killing NB cells
O=c1c(O)c(-c2ccc(O)c(O)c2)oc2cc(O)cc(O)c12 [Quercetin],apoptosis and growth,[6],induced apoptosis and inhibited the growth
same,migration,[7],prevented the migration
same,uptake of glucose,[7],blocked the uptake of glucose
same,tumor growth and metastasis,[8],inhibited tumor growth and metastasis
same,effect on normal epithelial cells,[9],minimal effect
same,uptake of glucose and growth,[4],inhibited the uptake of glucose and reduced the growth
same,effectiveness relative to HT29 cells,[10],less effective
Oc1ccc(C=Cc2cc(O)cc(O)c2)cc1 [Resveratrol],cell proliferation,[11]; dose-dependent,reduced cell proliferation
same,apoptosis,[11]; through mitochondrial pathway,induced apoptosis
same,growth,[12]; 2.5-10 μM,inhibited the growth
same,ionizing radiation-induced apoptosis,[12],enhanced ionizing radiation-induced apoptosis
same,glutamine metabolism,[13],inhibited glutamine metabolism
same,levels of phosphorylated H2AX (yH2AX),[13],enhanced the levels
same,activity of caspase 8,[14]; in 24 hours,increased activity of caspase 8
same,apoptosis pathway,[14],increased apoptosis pathway
same,growth,[15],not of normal prostate epithelial cells
same,growth,[16],reduced the growth
same,apoptosis,[17],induced apoptosis
"O=C1O[C@H]([C@@H](O)CO)C(O)=C1O [Vitamin C, ascorbic acid]",growth of cancer cells and normal cells in humans,[18],inhibits the growth of cancer cells without affecting the growth of normal cells
same,overall survival time,[19],increased overall survival time
same,effect of radiation on pancreatic cancer cells,[20],sensitize the effect of radiation
same,oxidative stress,[21],reduced oxidative stress
same,radiation-induced damage to normal cells,[22],inhibited radiation-induced damage
same,growth of murine normal fibroblast,[23],only slightly reduced
same,cells killed,[5]; high concentration,100%
same,growth of tumorigenic parotid acinar cells,[24],inhibited the growth
same,cell killing,[25],killed selectively
"C=C1CC[C@H](O)C/C1=C/C=C1\CCC[C@]2(C)[C@@H]([C@H](C)CCCC(C)C)CC[C@@H]12 [Vitamin D3, cholecalciferol]",glutamine uptake and growth,[26],inhibited glutamine uptake and reduced their growth
same,level of glutamine transporter protein (SLC1A5),[26],reducing the level
N.N.[Cl][Pt][Cl] [cisplatin],levels of phosphorylated H2AX (yH2AX),[13],enhanced the levels
"COC1=C(OC)C(=O)C(C/C=C(\C)CC/C=C(\C)CC/C=C(\C)CC/C=C(\C)CC/C=C(\C)CC/C=C(\C)CC/C=C(\C)CC/C=C(\C)CC/C=C(\C)CCC=C(C)C)=C(C)C1=O [coenzyme Q10, Coenzyme Q10]",cytotoxicity of doxorubicin,[27],did not interfere with the cytotoxicity
same,growth,[27],did not inhibit the growth
same,survival of breast cancer patients,"[28]; daily supplementation 390 mg or more, with standard cancer therapy",may increase the survival
same,fatigue and quality of life,[28]; supplementation with 300 mg,did not improve the extent of fatigue or the quality of life
same,effect on non-transformed astrocytes,[29],without affecting non-transformed astrocytes
same,cytotoxicity of TMZ (temozolomide),[30],enhanced the cytotoxicity of TMZ
same,sensitivity to ionizing radiation (DNA damage and apoptosis),[30],increased the sensitivity to ionizing radiation
"COc1cc(/C=C/C(=O)CC(=O)/C=C/c2ccc(O)c(OC)c2)ccc1O [curcumin, Curcumin]",growth and apoptosis,[31],inhibits the growth and induces apoptosis
same,growth,[32],inhibited growth
same,proliferation,[33],reduced the proliferation
same,apoptosis induced by arsenic oxide or lonidamine,[34],increased the levels of apoptosis
same,apoptosis induced by cisplatin,[34],no similar effect
same,ionizing radiation-induced apoptosis,[35],enhanced ionizing radiation-induced apoptosis
CC1=C(/C=C/C(C)=C/C=C/C(C)=C/CO)C(C)(C)CCC1 [retinol],differentiation,[36],induced differentiation
"Cc1c(C)c2c(c(C)c1OC(=O)CCC(=O)O)CC[C@@](C)(CCC[C@H](C)CCC[C@H](C)CCCC(C)C)O2 [vitamin E succinate, D-alpha tocopheryl succinate]",toxicity of Adriamycin,[37],enhanced the toxicity
same,apoptosis alone and with hyperthermia,[38],induced apoptosis and enhanced apoptotic effects of hyperthermia
same,radiation-induced chromosomal damage in normal cells,[39]; FIG. 9,protected normal cells against such damage
same,chromosomal damage,[39]; in culture,not in human normal fibroblasts
same,radiation-induced chromosomal damage in cancer cells,[40]; FIG. 9,enhanced the levels of radiation-induced chromosomal damage
same,chromosomal damage,[40]; in culture,induced chromosomal damage
same,expression of oncogenes c-myc and H-ras,[41]; growth-inhibitory dose,reduced the expression
same,differentiation and growth,"[41]; high doses, in culture (FIG. 7)",induced differentiation and growth inhibition
same,toxicity of Adriamycin,[42],not on human normal fibroblasts
Omega-3-fatty acids,glucose and glutamine metabolism and growth,[43],"inhibited glucose and glutamine metabolism, and reduced their growth"
